The results in this text go back to publication PMC6189209.

The chains behind the UniProt entries cited, without tags or fusion partners.
UniProt Q9UM07: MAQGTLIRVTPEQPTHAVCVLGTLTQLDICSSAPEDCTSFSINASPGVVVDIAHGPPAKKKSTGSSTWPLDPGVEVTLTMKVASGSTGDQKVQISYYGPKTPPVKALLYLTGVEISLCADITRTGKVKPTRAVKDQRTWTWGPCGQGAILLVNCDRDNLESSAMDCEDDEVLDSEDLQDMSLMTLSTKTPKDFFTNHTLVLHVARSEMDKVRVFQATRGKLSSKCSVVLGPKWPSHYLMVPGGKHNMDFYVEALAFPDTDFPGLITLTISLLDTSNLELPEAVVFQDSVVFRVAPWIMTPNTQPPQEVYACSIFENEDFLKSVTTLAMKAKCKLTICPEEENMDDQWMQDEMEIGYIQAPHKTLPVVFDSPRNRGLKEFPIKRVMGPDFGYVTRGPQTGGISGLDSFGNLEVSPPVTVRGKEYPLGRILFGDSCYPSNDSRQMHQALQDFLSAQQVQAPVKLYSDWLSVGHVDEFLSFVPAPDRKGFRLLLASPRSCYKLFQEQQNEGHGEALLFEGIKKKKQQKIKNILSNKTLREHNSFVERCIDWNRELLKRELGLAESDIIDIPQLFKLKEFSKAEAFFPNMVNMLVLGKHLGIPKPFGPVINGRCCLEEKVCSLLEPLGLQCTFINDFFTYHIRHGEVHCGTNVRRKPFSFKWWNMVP
UniProt Q9Y2J8: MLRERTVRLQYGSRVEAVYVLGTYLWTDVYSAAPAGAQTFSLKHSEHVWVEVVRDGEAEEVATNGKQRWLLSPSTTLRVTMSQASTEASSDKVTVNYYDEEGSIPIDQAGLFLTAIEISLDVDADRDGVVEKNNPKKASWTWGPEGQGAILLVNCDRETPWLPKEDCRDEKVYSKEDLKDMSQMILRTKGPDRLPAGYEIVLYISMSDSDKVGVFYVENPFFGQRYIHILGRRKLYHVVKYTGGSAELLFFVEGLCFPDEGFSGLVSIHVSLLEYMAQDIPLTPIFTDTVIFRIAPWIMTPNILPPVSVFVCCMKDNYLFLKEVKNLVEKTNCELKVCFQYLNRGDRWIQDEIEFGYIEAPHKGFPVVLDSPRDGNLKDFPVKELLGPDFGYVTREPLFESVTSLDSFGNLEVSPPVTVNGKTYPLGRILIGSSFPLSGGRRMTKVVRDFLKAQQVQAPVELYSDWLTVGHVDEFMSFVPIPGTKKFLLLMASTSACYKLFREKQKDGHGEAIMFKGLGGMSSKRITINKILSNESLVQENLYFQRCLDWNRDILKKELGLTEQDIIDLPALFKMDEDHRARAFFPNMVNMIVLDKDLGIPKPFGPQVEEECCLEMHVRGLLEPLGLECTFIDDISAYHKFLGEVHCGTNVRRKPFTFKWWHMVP
UniProt P19878: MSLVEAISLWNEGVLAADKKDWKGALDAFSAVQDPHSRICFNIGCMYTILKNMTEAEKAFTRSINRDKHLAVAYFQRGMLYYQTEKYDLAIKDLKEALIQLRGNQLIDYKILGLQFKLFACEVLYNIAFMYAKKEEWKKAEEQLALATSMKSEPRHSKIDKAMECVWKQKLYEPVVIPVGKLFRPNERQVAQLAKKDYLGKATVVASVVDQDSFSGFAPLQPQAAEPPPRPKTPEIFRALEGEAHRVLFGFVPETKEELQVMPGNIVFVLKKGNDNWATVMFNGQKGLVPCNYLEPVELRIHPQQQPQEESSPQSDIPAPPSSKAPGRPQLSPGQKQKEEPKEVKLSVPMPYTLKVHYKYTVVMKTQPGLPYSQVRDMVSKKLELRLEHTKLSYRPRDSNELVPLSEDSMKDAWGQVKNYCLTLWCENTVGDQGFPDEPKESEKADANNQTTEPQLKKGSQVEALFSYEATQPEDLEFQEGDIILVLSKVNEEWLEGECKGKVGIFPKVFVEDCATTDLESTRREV
UniProt P14598: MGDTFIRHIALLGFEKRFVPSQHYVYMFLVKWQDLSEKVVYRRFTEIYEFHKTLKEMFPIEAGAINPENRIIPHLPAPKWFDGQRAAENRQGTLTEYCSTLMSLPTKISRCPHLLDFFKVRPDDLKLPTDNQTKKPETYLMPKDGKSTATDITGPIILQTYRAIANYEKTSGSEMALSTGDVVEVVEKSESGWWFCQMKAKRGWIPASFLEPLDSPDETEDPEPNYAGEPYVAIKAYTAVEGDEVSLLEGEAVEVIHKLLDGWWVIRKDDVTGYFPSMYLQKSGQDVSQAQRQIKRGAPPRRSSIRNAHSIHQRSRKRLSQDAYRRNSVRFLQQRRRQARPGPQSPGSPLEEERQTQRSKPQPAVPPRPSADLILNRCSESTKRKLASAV

In test [1] the target is protein arginine deiminase 4 (PAD4) (human (endogenous in neutrophils)) (UniProt Q9UM07). Kind of test: condition: only neutrophils treated with BB-Cl-amidine; co-IP; anti-PAD4 immunoprecipitates from neutrophils briefly treated with the PAD inhibitor BB-Cl-amidine; immunoblots for NCF1, NCF2, NCF4.
Test [2] shares this target. In words: co-IP; lysates of human neutrophils (RIPA lysis buffer; resting, DMSO- or PMA-treated); IP with PAD4, PAD2, NCF1 or NCF2 antibodies coupled to protein G beads, elution with Tris-glycine pH 2.8, immunoblot. On the technique in general: Immunoblotting shows a protein as a band on a membrane.
Test [3] addresses protein arginine deiminase 2 (PAD2) (human (endogenous in neutrophils)) (UniProt Q9Y2J8). Described as above.
In test [4] the target is protein arginine deiminase 4 (PAD4) (human (endogenous in neutrophils)) (UniProt Q9UM07). Kind of test: co-IP; anti-PAD4 immunoprecipitates from neutrophils briefly treated with the PAD4 inhibitor GSK484; immunoblots for NCF1, NCF2, NCF4.
For test [5] the target is unchanged. In words: condition: only neutrophils treated with 1 µM ionomycin (in medium with 2 mM Ca^2+); co-IP; anti-PAD4 immunoprecipitates from neutrophils treated with 1 µM ionomycin (in medium with 2 mM Ca^2+), anti-NCF1 immunoblot.
In test [6] the target is p67^phox (neutrophil cytosol factor 2, NCF2) (human (endogenous in neutrophils)) (UniProt P19878). In words: co-IP; lysates of human neutrophils (RIPA lysis buffer; resting, DMSO- or PMA-treated); IP with PAD4, PAD2, NCF1 or NCF2 antibodies coupled to protein G beads, elution with Tris-glycine pH 2.8, immunoblot.
The target in test [7] is p47^phox (neutrophil cytosol factor 1, NCF1) (human (endogenous in neutrophils)) (UniProt P14598). Described as above.
Test [8] concerns the target protein arginine deiminase 4 (PAD4) (human (endogenous in neutrophils)) (UniProt Q9UM07). The test is described as above. This is another data set of the same source.
In test [9] the target is p47^phox (neutrophil cytosol factor 1, NCF1) (human (endogenous in neutrophils)) (UniProt P14598). The test is described as above. The source holds these as a separate data set.

Read-outs that look alike come from different tables or passages of the source. No constants are given. Whether binding was seen depends on the method and setting. In cells and extracts the contact can be indirect. Some entries that bind do so weakly or less than the wild type.

Turning to “p47^phox (neutrophil cytosol factor 1, NCF1) (from UniProt P14598 1-390)”, the binding entry in test [1] was “no binding”; in test [2], “binds”; in test [3], “no binding”; in [4] it was “no binding (condition: neutrophils treated with GSK484)”; in test [5], “no binding”.

Consider “p67^phox (neutrophil cytosol factor 2, NCF2) (from UniProt P19878 1-526)”, for which the binding result in [1] is listed as “no binding”; in test [2], “binds”; in [3], “no binding”; in test [4], “no binding (condition: neutrophils treated with GSK484)”.

For “protein arginine deiminase 4 (PAD4) (from UniProt Q9UM07 1-663) (enzyme)”, the binding entry in test [6] and in [7] was “binds” throughout.

B1: NCF4 (protein, UniProt Q15080 1-339)
chain: MAVAQQLRAESDFEQLPDDVAISANIADIEEKRGFTSHFVFVIEVKTKGGSKYLIYRRYRQFHALQSKLEERFGPDSKSSALACTLPTLPAKVYVGVKQEIAEMRIPALNAYMKSLLSLPVWVLMDEDVRIFFYQSPYDSEQVPQALRRLRPRTRKVKSVSPQGNSVDRMAAPRAEALFDFTGNSKLELNFKAGDVIFLLSRINKDWLEGTVRGATGIFPLSFVKILKDFPEEDDPTNWLRCYYYEDTISTIKDIAVEEDLSSTPLLKDLLELTRREFQREDIALNYRDAEGDLVRLLSDEDVALMVRQARGLPSQKRLFPWKLHITQKDNYRVYNTMP
As for B1, the binding entry in test [1] was “no binding”; in test [8], “binds”; in test [4], “no binding (condition: neutrophils treated with GSK484)”.

B2: gp91 (NADPH oxidase subunit) (protein, UniProt P04839 1-570)
chain: MGNWAVNEGLSIFVILVWLGLNVFLFVWYYRVYDIPPKFFYTRKLLGSALALARAPAACLNFNCMLILLPVCRNLLSFLRGSSACCSTRVRRQLDRNLTFHKMVAWMIALHSAIHTIAHLFNVEWCVNARVNNSDPYSVALSELGDRQNESYLNFARKRIKNPEGGLYLAVTLLAGITGVVITLCLILIITSSTKTIRRSYFEVFWYTHHLFVIFFIGLAIHGAERIVRGQTAESLAVHNITVCEQKISEWGKIKECPIPQFAGNPPMTWKWIVGPMFLYLCERLVRFWRSQQKVVITKVVTHPFKTIELQMKKKGFKMEVGQYIFVKCPKVSKLEWHPFTLTSAPEEDFFSIHIRIVGDWTEGLFNACGCDKQEFQDAWKLPKIAVDGPFGTASEDVFSYEVVMLVGAGIGVTPFASILKSVWYKYCNNATNLKLKKIYFYWLCRDTHAFEWFADLLQLLESQMQERNNAGFLSYNIYLTGWDESQANHFAVHHDEEKDVITGLKQKTLYGRPNWDNEFKTIASQHPNTRIGVFLCGPEALAETLSKQSISNSESGPRGVHFIFNKENF
As to B2, in [9], the binding entry was “binds”.
